# Assay results: the RNAGym collection of RNA variant scans (doi:10.7554/elife.90254)
# The source gives no read counts; variants with many changes may rest on few reads.
# B1: OR4K15 (parent)
# chain: GUUAACGGUCAUAGGCCAUGGAAACUAGGAGCACCAUUUCGCUGCCAGUGAAGAAAUGAACAAAGAAAAUCUGGGCCAGGCAGGCAUCAAAAGAAAUAGUCUUGCGCUCAACCAGAAAGUCUGUAAUCAUUUUAAGGGUA
# Variants of: B1
# Experiment: self-cleavage, relative activity (ratio to wild type); higher = more cleavage; in vitro, sequencing; the parent is a self-cleaving ribozyme
row,Variant,self-cleavage
1,U49C A96G U103C U122C,0.52
2,A18G A51U A64G A67G C112U A117G U122C,0
3,A13C A47U U49C A86G U100C A118G,1.68
4,A56G A86U U108A,0.02
5,C45A A89G A118G,0.74
6,U38C A68G C105A,0.03
7,C32U A60G A91G U127C,0.64
8,A52G A96G U102C,1.37
9,U9C A11G A68G A126G,0.56
10,A51U A56G A62G A114G,0.25
11,A18G U37C A64G A69G,0.93
12,U37A A86G A126G,1.05
13,A54G U72C A126G,0.19
14,U26C U38A A98G,0.79
15,A36U A91G U100A U130C,0.39
16,A68G A118G U132C,0.47
17,A60G A62C A114G,0.02
18,A36C U49A A66G U87C,1.82
19,U9C A24G A52G A86U U87C U100C,2.84
20,A59G C88U U108C,0
21,A63G U102A U103C,0.26

row,Variant,self-cleavage
1,A4G G29A U130A,1.06
2,U26A A30G A66U A89U A135U,0.7
3,G7A A23G A24U A78U,0.25
4,U9C U37C A66G A91G,1.65
5,A24C A56G U133C,2.46
6,U9C U39C A59G,1.28
7,A36G A55U A82G A118G,0.1
8,A18G C35U A68G A82G,0.31
9,A27U A55G A90G,1.1
10,A60U U122A A129G,1.54
11,A4G A116G U132G,0.3
12,A33G A66G A68G A95G,1.24
13,A18G A24C A78U A129G,0.08
14,A4G A60G A94G,1.3
15,A5G A78G U97C,0.7
16,U2A A51G A63G,0.89
17,A5G C77U A140G,1.22
18,A51G A56G A86G U87A,1.48
19,C17U A51G A98G U131C,0.19
20,U19C A52G U57C A59G C113U,0.1
21,G14A U19C A69G A89G U108C,0.01

row,Variant,self-cleavage
1,A52G A126G U127C,1.21
2,A94G A95U A134G,1.44
3,A33G A36U U49C A56G A67G A116C U132C,0.02
4,A59G A68G A89G,1.08
5,A47U A51G A98C,0.58
6,A30G U38C A51G A54C A64G U100C A114G U131A,0.99
7,A51G A63G A66G A129G U132A,0.7
8,A69G A82G U108C A111U,0.06
9,A23G A64G A90G A116G,0.19
10,A64G C105U A126G G136C,0.06
11,U12C U26C A27G A33U A129G,0.87
12,U39A A110C A129C,0.1
13,A23G A59G U97C A118G,0.38
14,A24U A55U U124C,0.26
15,G1U U2C U9C A89U A111G C128A,0.05
16,A5U A22G U57C,0.56
17,U19C A55C A90G U108C U130C,0.02
18,A24U A30G A62G A94G U124C,0.77
19,A55G A90G A116C,0.02
20,A52G A59G A63G U122C,0.97
21,A54U U72C A118G,0.16

row,Variant,self-cleavage
1,U2A A55G A89G,0.93
2,A59G A64G A78C U87C,0.18
3,A13G A111G U122C,0.05
4,A23G A52G U87C,1.24
5,A23G A55U A60G A95G A110G,0.1
6,U2C U57A U139C,0.71
7,G7A A55G U122C,0.69
8,A5G A82U A96G U100C U131C,0.24
9,U43C U87C A95G U100C,2.92
10,A23G A24G A92U U108C,0.07
11,U9C A64G A69U A117G U132A,1.64
12,A59G U120C U122G A126G,2
13,A18U U37C A140G,1.25
14,G8U A56G A95G,2.64
15,A36G A64U G84U A91G,0.14
16,G44C A90U U100A,1.22
17,A4G A5G U37C A78G A135G,1.04
18,U9A A30G U43C A63G U124C,1.12
19,G7A A67C A134G,2.21
20,A22U U70C A89U A92G U108C,0.02
